Test results from PubChem BioAssay AID651582 (Sanford-Burnham Center for Chemical Genomics, 2012).
The other results are listed elsewhere or left out. Shown are side measurements of this screen, not its main read-out; they come without a call. Most of these compounds were active or inconclusive in the main read-out, so they are no random draw.

experiment: TAG lipid buildup reduction in H9c2 cells – cell-based, uHTS, fluorescence, primary screen (AID 651582); settings: Nile Red lipid (TAG) fluorescence, measured here:, at 12.5 µM, cells loaded with 200 µM oleic acid

Compound | DAPI nuclei signal change (viability), lower = more cytotoxic
CCC(C)(C)c1ccc(OCCCC[n+]2ccccc2)c(C(C)(C)CC)c1 | -10.6%
O=C(/C=C/Sc1ccc(C(F)(F)F)cn1)c1ccccc1 | -18.9%
Cc1c(C(=O)OCC(C)C)[nH]c2c1C(=O)CC(c1cccs1)C2 (stereo not drawn) | -28.8%
Cc1ccc2c(c1)Oc1ccc(NC(=O)CCl)cc1C(=O)N2 | -48.4%
COc1ccc(NC(=O)Cn2c(-c3ccccc3)cn(-c3ccc(C)cc3)c2=O)cc1 | -6.36%
O=C(Nc1cccc2ncccc12)c1ccc(Cl)cc1 | -11.8%
CC(C)(C)OC(=O)[C@H](Cc1ccccc1)NC(=O)c1ncn2c1c(=O)[nH]c1ccc(Br)cc12 | -19.8%
COC(=O)CC1C(=O)NCCN1C(=O)c1ccc(S(=O)(=O)N2CCOCC2)cc1 (stereo not drawn) | -42.5%
NC1=C(Cl)C(=O)c2ccccc2C1=O | -50%
Cc1c(C(=O)OCC2CCCO2)[nH]c2c1C(=O)CC(c1ccco1)C2 (stereo not drawn) | -24.7%
CC(C)CCCCCCCCCCCCC(=O)NCC(=O)NC1C(C)OC(Nc2ncnc3nc[nH]c23)C(O)C1O (stereo not drawn) | -47%
Cc1ccc2[nH]c(-c3ccccc3)cc(=O)c2c1 | -25.6%
COc1ccc(NC(=O)C2(C)Cc3c(-c4ccc5c(c4)OCO5)ccnc3O2)cn1 (stereo not drawn) | -42%
Cc1cc(C)c2sc(NC(=O)c3ccc([N+](=O)[O-])o3)nc2c1 | -41.2%
CCC(=O)Nc1c(-c2ccc(OC)cc2)c(=O)c2ccccc2n1C | -49.1%
COc1cc(/C=C/CN2CCC(C(=O)NC(c3ccc(F)cc3)c3ccc4ccccc4n3)CC2)ccc1OC(C)=O (stereo not drawn) | -0.458%
Cc1ccc(Cl)cc1NC(=S)N/N=C/c1cccc2ccccc12 | -24.6%
COc1cccc(Cn2c3ccc(NC(=O)CCc4ccc(F)cc4)cc3c(=O)n2C)c1 | -18.7%
COc1ccc(CCn2c(-n3nc(C)cc3C)nc3c2c(=O)[nH]c(=O)n3C)cc1 | -17.4%
CCOc1ccccc1NC(=O)C1CCN(C(=O)NCc2ccccc2)CC1 | -0.372%
Cc1ccc(C(=O)c2no[n+]([O-])c2C(=O)c2ccc(C)cc2)cc1 | -7.4%
Nc1nn(-c2ccccc2)c(N)c1N=Nc1cccc(F)c1 | -41.3%
COc1cc(OC)c(-c2nn3c(-c4ccco4)nnc3s2)cc1OC | -6.22%
CN1CCN(c2ccc(Cl)cc2NC(=O)c2ccc(S(=O)(=O)N(C)C)cc2)CC1 | -13.2%

Compound | DAPI nuclei signal change (viability), lower = more cytotoxic
Oc1ccc(Nc2nc(NCC3CCCO3)c3ccccc3n2)cc1 (stereo not drawn) | -8.48%
CCC1SC2=NC(C)=C(C(=O)OCC(C)C)C(/C=C/c3ccccc3OC)N2C1=O (stereo not drawn) | -16.4%
CCOc1ccc(NC(=O)c2ccc(NC(=O)CSc3nc4ccccc4c(=O)[nH]3)cc2)cc1 | -25.2%
Cc1cc(NC(=O)c2ccccc2F)n(-c2nc3ccccc3[nH]2)n1 | 25.8%
Nc1c(C(=O)Nc2ccccc2)c2nc3ccccc3nc2n1CCCN1CCOCC1 | 40.4%
CC(C)C[C@H]1C(=O)N2CCC[C@H]2[C@]2(O)O[C@](NC(=O)C3C=C4c5cccc6[nH]c(Br)c(c56)C[C@H]4N(C)C3)(C(C)C)C(=O)N12 (stereo partly drawn) | 15.8%
CN(C)CCNc1ccc2ncn3c4ccc(O)cc4c(=O)c1c23 | -48.7%
CN1C/C(=C/c2ccccc2[N+](=O)[O-])C(=O)/C(=C\c2ccccc2[N+](=O)[O-])C1 | -44.6%
COc1ccc(C2c3cc4c(cc3OC(N3CCOCC3)C2C)OCO4)c(OC)c1 (stereo not drawn) | -16%
COc1cc(CCCN2CCNC[C@@H]2c2ccccc2)cc(OC)c1OC | -46.3%
CCOC(=O)c1c(C)[nH]c(-c2csc(N)n2)c1C | -31.3%
COc1ccc(-c2sc3ccc(N4CCOCC4)cc3c2C#CCCO)cc1 | 58.9%
O=C(N/N=C/c1cn(-c2ccccc2)nc1-c1cc2ccccc2o1)c1c[nH]c2ccccc12 | -26.2%
CCC(C)NCC(=O)Nc1ccc(-c2nc3cc(NC(=O)CNC(C)CC)ccc3o2)cc1 (stereo not drawn) | 48%
c1ccc(-c2csc(NNC3=NCCCCC3)n2)cc1 | -3.39%
CC(C)=CCC/C(C)=C/CNC(=O)C[C@H]1C[C@H](C(=O)N2CCCCC2)[C@@]2(CCc3ccccc3)c3[nH]c4cc(-c5ccco5)ccc4c3CCN2C1=O | 8.48%
c1ccc(C2Nc3ccccc3-c3nc4ccccc4n32)nc1 (stereo not drawn) | 15.5%
O=C(NCCOc1nc(N2CCOCC2)nc(N2CCOCC2)n1)Nc1ccccc1 | -17.2%
COc1ccc(C(=O)Nc2sc3c(c2C(=O)NCc2ccco2)CCCC3)cc1OC | -5.66%
Oc1c(N=Nc2ccccn2)ccc2ccccc12 | -17.6%
CS(=O)(=O)c1nc(-c2ccc(Br)cc2)cc(-c2ccccc2)c1C#N | -43.3%
CCOc1ccccc1C1C2=C(COC2=O)Nc2cc3c(cc21)OCO3 (stereo not drawn) | -35%
O=C(CSc1nc(Nc2ccccc2)nc(N2CCOCC2)n1)N1CCCC1 | -25.3%
CC1CCc2c(sc3nc(C(C)(C)C)nc(N4CCN(C(=O)CCl)CC4)c23)C1 (stereo not drawn) | -47.2%

Compound | DAPI nuclei signal change (viability), lower = more cytotoxic
C[C@@H]1CN([C@H](C)CO)C(=O)c2c(c3ccccc3n2C)-c2ccccc2CO[C@H]1CN(C)Cc1ccc(-c2ccccc2)cc1 | -35.1%
Cn1nc(-c2ccc(Cl)cc2)c2cc(C(=O)NC3CC3)sc21 | -37.2%
CCOC(=O)[C@H]1[C@H]2COc3ccc(Cl)cc3[C@@H]2N2C(=O)c3cc(Cl)ccc3NC(=O)[C@@]12C | -9.69%
CCC(=O)NC(c1cc(Cl)c2cccnc2c1O)C1CC1 (stereo not drawn) | -41.9%
CCCCC(=O)NC(c1ccc(Cl)cc1)c1ccc2cccnc2c1O (stereo not drawn) | -41.6%
COc1ccccc1-c1cc(C(=O)NC2CCN(C)CC2)c2ccc(Cl)c(C)c2n1 | -48.5%
CC(=O)c1ccc(N=Cc2c(O)n(-c3cc(Cl)ccc3N3CCOCC3)c(=O)c3ccccc23)cc1 | -5.93%
CCc1ccc(-c2nc(C(N)=O)c3[nH]c(=O)n(-c4ccccc4OC)c3n2)cc1 | -30%
CC1(C(=O)Nc2cccc(Oc3ccccc3)c2)Cc2c(-c3ccc4c(c3)OCO4)ccnc2O1 (stereo not drawn) | -46.8%
COc1cc2c(cc1OC)C(C)N(C(=O)c1cc3c(C)cc(C)cc3[nH]1)CC2 (stereo not drawn) | -8.36%
O=C(CSc1ccc(-c2cccc([N+](=O)[O-])c2)nn1)N1CCCC1 | -46.9%
CCOC(=O)c1cc(-c2ccccc2)sc1NC(=S)Nc1cccc(C)n1 | -13.9%
Cc1ccc(-c2cc(C(F)F)n3ncc(C(=O)N4CCCc5ccccc54)c3n2)cc1 | -20.5%
COc1ccc(CC(N)c2csc(NC(=O)c3cc(C(C)(C)C)nn3Cc3ccccc3)n2)cc1 (stereo not drawn) | -21.6%
CCCc1nc2oc3c(NCCN(C)C)ncnc3c2c2c1CCCC2 | -0.747%
OC1CC2CCC(C1)N2CCCN1c2ccccc2Sc2ccc(Cl)cc21 (stereo not drawn) | -48.4%
Cc1cc(N2CCN(Cc3cn(C)nc3-c3cccc(Cl)c3)CC2)cc(C)n1 | -40.7%
Cc1c(Nc2cc(Cl)c3nonc3c2[N+](=O)[O-])c(=O)n(-c2ccccc2)n1C | 94.6%
O=C(c1ccoc1)N1CCN(c2cc(-c3ccccc3)nc3cc(-c4ccc(Br)cc4)nn23)CC1 | 89.8%
NNC(=O)CCN1CCCCC1 | -24.8%
COc1ccc(CC(=O)Nc2ccc(-c3ccc4nnc(C)n4n3)cc2)cc1OC | -1.26%
Cc1ccc(C(=O)NCCN2C3=NC[C@H](C(C)C)N3C[C@H]2Cc2ccc(O)cc2)cc1Br | -30.8%
CC(C)(C)NC(=O)C(c1ccc(-c2ccccc2)cc1)N(C[C@H]1CC[C@@H]([C@@H]2CC[C@H](CO)O2)O1)C(=O)c1ccc(-c2ccccc2)cc1 (stereo partly drawn) | 7.44%
COc1ccc(CNC(=O)c2ccc(N3CCC4(CC3)CC(c3ccc(Cl)cc3)=NO4)c(NC(=O)Cc3ccc(F)cc3)c2)cc1 | -1.82%

Compound | DAPI nuclei signal change (viability), lower = more cytotoxic
Cc1cc(C)c2sc(N(CCCN(C)C)C(=O)c3ccc(S(=O)(=O)N4CCCc5ccccc54)cc3)nc2c1 | -40%
O=C(Nc1ccc(F)cc1)c1cc(Cl)sc1Cl | -47.8%
O=C(CSc1nc2ccc(Nc3nc(N4CCOCC4)nc(N4CCOCC4)n3)cc2s1)Nc1ccccc1Cl | -2.88%
O=C(c1ccoc1)N1CCN(c2cc(-c3cccnc3)nc3cc(-c4cccc(Cl)c4)nn23)CC1 | 81.7%
CCOc1ccc(CCNC(=O)CN2CCN(Cc3ccccc3C)C2=O)cc1OCC | -13%
CCOCCOC(=O)c1[nH]c2c(c1C)C(=O)CC(c1cccs1)C2 (stereo not drawn) | -46.8%
Oc1c(C(c2ccccc2Cl)N2CCCC2)ccc2cccnc12 (stereo not drawn) | -24.5%
COc1cccc(/C=C/C(=C2/C(=O)N(c3ccccc3)N=C2C)c2ccc(C)cc2)c1OC | -2.21%
CCCN(CCC)CCNC(=O)c1cc2c(=O)n(CC)c3ccccc3c2s1 | 70.1%
C#CCN(C[C@@H]1[C@@H](OC(=O)NCc2ccccc2F)[C@@H](OC(=O)NCc2ccccc2F)Cn2c(=O)ccc(=O)n21)S(=O)(=O)c1ccc(C)cc1 | -45.7%
Brc1ccc(-c2csc(NNC3=NCCCCC3)n2)cc1 | -16.5%
CCCOc1ccc(F)cc1-c1cc(C(=O)NCc2cc(OC)cc(OC)c2)[nH]n1 | -3.7%
O=C(N/N=C/c1cc(Cl)cc(Cl)c1O)c1ccncc1 | -29.8%
COc1cccc(/C=N/NC(=O)CSc2cccc3cccnc23)c1 | -22.5%
Cc1cc(-n2c(C)cc(C(=O)CSc3nc4ccccc4c(=O)n3Cc3ccco3)c2C)no1 | -1.73%
CC(C)c1cccc(C(C)C)c1OC(=O)[C@H]1OC(c2ccc(Br)cc2)=C[C@@H]1c1ccc(Br)cc1 | -19.8%
C[C@H](O)[C@@H]1CN2CCc3c([nH]c4ccc(-c5ccc6c(c5)OCO6)cc34)[C@@H]2C[C@@H]1N(C)C(=O)Nc1cc(Cl)cc(Cl)c1 | -43%
Cc1cc(C)cc(-n2c3ccc(NC(=O)Cc4cccc5ccccc45)cc3c(=O)n2C)c1 | -41%
O=C(CCC1CCCC1)Nc1ccc(OCC(=O)N2CCOCC2)cc1 | 4.64%
Oc1ccc(C[C@H]2CNC(=S)N2CC2CCCN2C[C@H](Cc2ccc(O)cc2)N2C[C@H](Cc3ccc(O)cc3)N(CC3CCCCC3)C2=S)cc1 (stereo partly drawn) | 4.26%
CCN(CC(=O)Nc1ccc(C(=O)Nc2ccc(OC)cc2)cc1)Cc1nc2ccccc2c(=O)[nH]1 | -26.1%
